“And” between values parts separate entries of the source, which are not always exact repeats. Identical values can stand only once. The whole screen tested about 94,000 compounds, of which about 4,000 (4.3%) were called active. Inconclusive results, whose numbers are uncertain, are shown with a selection of clear calls. The call rests on the fitted dose curve; in most records, active means well fitted inhibition curve with a large enough effect; inconclusive means small, poorly fitted or top-dose-only effect; inactive means no such curve, though single readings can be large or run the other way. Potencies beside an inconclusive call are fits to weak or partial responses and may not hold up.
Test: Cytotoxic Profiling in NIH 3T3 Cell Line of Diverse Libraries Using Quantitative High-Throughput Screening; further: nearly all actives have a fitted effect of over 55% in size
Settings: NIH 3T3 viability, CellTiter-Glo ATP luminescence, 48-72 h; activity change, negative = cytotoxicity: at 96.7 µM (top of the series) unless noted; series mostly up to 96.7 µM
How it was run: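 NIH 3T3 cells at 400 cells/well received 23 nL of compound by pintool and were incubated 48 or 72 h at 37 °C. Viability was read as ATP-coupled CellTiter-Glo luminescence.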
On the % scale 0 is the no-effect control and ±100 the full control effect; potency means the concentration at half of the fitted maximal effect; tags describe the fitted curve by direction and shape.

Row | SMILES | Potency | activity change, negative = cytotoxicity | outcome
1 | COc1ccc(CC(=O)N2CCCN(c3cc(-c4ccc(Br)cc4)[nH]n3)CC2)cc1OC | inconclusive: 39.8 µM [inhibitor, partial curve, poor fit] | – | –
2 | O=c1[nH]nc2n1CCC(NS(=O)(=O)c1ccc(Cl)s1)CC2 (stereo not given) | – | inactive: -12.3% | –
3 | CCCc1noc(-c2cn(C3CCN(C(=O)c4ccc(F)cc4)CC3)nn2)n1 | inconclusive: 25.1 µM [inhibitor, full curve] | – | –
4 | CN1CCN(c2ccc(-c3noc([C@@H]4CCCN4Cc4ccncc4)n3)cn2)CC1 | inconclusive: 89.1 µM [inhibitor, partial curve, poor fit] | – | –
5 | CCSc1ncc(CN2CCN(c3nc(C)cnc3C)CC2)cn1 | inconclusive: 50.1 µM [inhibitor, partial curve, poor fit] | – | –
6 | COc1ccc2nc(C[C@@H]3C[C@@H](C(C)C)[C@H](CN4C(=O)C(C)=C(C)C4=O)C=C3C)[nH]c2c1 | inconclusive: 44.7 µM [inhibitor, partial curve, poor fit] | – | –
7 | N#Cc1ccc(CN2C[C@@H]3C[C@H]2C(=O)Nc2ccccc2O3)cc1 | inconclusive: 112 µM [inhibitor, single point] | – | –
8 | CCNc1ncnc2c1CN(C1CCNCC1)C(=O)CN2C | – | inactive: -11.2% | –
9 | O=C(c1c[nH]c2ccccc12)N1CCC2(CC1)COc1ccccc1[S+](=O)([O-])N2 | inconclusive: 25.1 µM [inhibitor, partial curve, poor fit] | – | –
10 | COCc1ccc2c(c1)c(OC(C)(C)C(=O)NCc1ccncc1)nn2Cc1cccc(OC)c1 | active: 10 µM | – | –
11 | COc1ccc(Cn2c(=O)c(C(=O)NC(C)C)nc3cccnc32)cc1 | – | inactive: -26.9% | –
12 | O=C(N[C@@H]1CCOC[C@H]1Oc1ccccn1)c1ccc(N2CCCC2=O)cc1 | – | inactive: -32.4% | –
13 | O=c1c(NS(=O)(=O)c2cccc(F)c2)ccc2n1C[C@H]1C[C@@H]2CN(S(=O)(=O)c2ccccc2)C1 | inconclusive: 56.2 µM [inhibitor, partial curve, poor fit] | – | –
14 | Cc1ccsc1CN1CC(Oc2ccc(-c3noc(C4CCOCC4)n3)cc2)C1 | active: 39.8 µM | – | –
15 | O=C(CCC1CCCN(S(=O)(=O)c2ccccc2)C1)NCC1CCCCC1 (stereo not given) | inconclusive: 44.7 µM [inhibitor, partial curve, poor fit] | – | –
16 | CN(C)CCN(C)c1ccc(-c2nc(-c3ccccc3F)no2)cn1 | inconclusive: 89.1 µM [inhibitor, single point] | – | –
17 | N#Cc1ccc(CN2CCc3nc(C(=O)N4CCOCC4)oc3CC2)cc1 | – | inactive: -23.4% [at 138 µM] | –
18 | C#CCNC(=O)C1CCCN1Cc1cccc(-c2ccc(C)c(Cl)c2)c1 (stereo not given) | active: 39.8 µM | – | –
19 | COc1ccc(NC(=O)N2CCCC3(C2)Nc2cccnc2NC3=NC2CCCC2)c(C)c1 (stereo not given) | inconclusive: 50.1 µM [inhibitor, partial curve, poor fit] | – | –
20 | CN(CC1CCOCC1)C(=O)c1ccc(Br)o1 | inconclusive: 39.8 µM [inhibitor, partial curve, poor fit] | – | –
21 | COc1cc(NC(=O)N2CCCC(Cn3c(C4CC4)nc4cccnc43)C2)cc(OC)c1 (stereo not given) | inconclusive: 70.8 µM [inhibitor, single point] | – | –
22 | Cc1noc(C)c1-c1cc2cc(C(C)C)oc2c(N2CCN(C)C(=O)C2)n1 | inconclusive: 20 µM [inhibitor, partial curve, poor fit] | – | –
23 | Cc1cnc(NC(=O)c2ccc3c(c2)OCCN(C2CCC2)C3)s1 | inconclusive: 79.4 µM [inhibitor, partial curve, poor fit] | – | –
24 | c1ccc2[nH]c(C3CCC(Cn4cc(-c5cncnc5)nn4)CC3)nc2c1 (stereo not given) | – | inactive: 2.16% | –
25 | COc1cccc(-c2ccc(C(=O)N3CCC(C(=O)NCc4ccc(F)cc4)CC3)cc2)c1 | inconclusive: 44.7 µM [inhibitor, partial curve, poor fit] | – | –

Row | SMILES | Potency | activity change, negative = cytotoxicity | outcome
26 | COc1ccccc1CN1Cc2cc(NC(=O)c3ccc4c(c3)OCO4)ccc2OC(C)C1=O (stereo not given) | inconclusive: 50.1 µM [inhibitor, partial curve, poor fit] | – | –
27 | COc1cccc(N2CC3(COCCN(C(=O)c4ccc(OC)c(OC)c4)C3)C2)c1 | inconclusive: 100 µM [inhibitor, partial curve, poor fit] | – | –
28 | COc1ccc(C(=O)Nc2ccc3c(c2)CN(Cc2cc(F)cc(F)c2)C(=O)C(C)O3)cc1 (stereo not given) | inconclusive: 22.4 µM [inhibitor, full curve] | – | –
29 | C=CCN1CC2(CCC1=O)CCN(c1nccc(C(F)(F)F)n1)CC2 | inconclusive: 56.2 µM [inhibitor, partial curve, poor fit] | – | –
30 | O=C(NC1CCNCC1)c1cc(C2CC2)nc2c1c(C1CCCN1)nn2-c1ccccc1 (stereo not given) | active: 22.4 µM | – | –
31 | COc1ccc2ccc(OCc3nc(C(=O)N4CC(N5CCCCC5)C4)co3)cc2c1 | inconclusive: 79.4 µM [inhibitor, partial curve] | – | –
32 | COc1ccccc1C(=O)N1CCCC1C(=O)N1CCC(N2CCCC2=O)CC1 (stereo not given) | – | – | inactive
33 | O=C(NCc1ccccc1)N1CCc2nnc(C3CC3)n2CC1 | – | – | inactive
34 | Cc1cccc(CNCc2ccccc2OCC(O)CN2CCSCC2)c1 (stereo not given) | inconclusive: 50.1 µM [inhibitor, partial curve, poor fit] | – | –
35 | CC(C)c1ccc(OCc2nc3c(n2Cc2ccccc2)C(=O)N(CC2CCOCC2)CCN3)cc1 | inconclusive: 44.7 µM [inhibitor, partial curve, poor fit] | – | –
36 | CC(O)CN1CCC(=O)N(C2CCCC2)Cc2ccccc21 (stereo not given) | inconclusive: 50.1 µM [inhibitor, partial curve, poor fit] | – | –
37 | COc1ccc(CNC(=O)C[C@@H]2CCNC[C@@H]2Cc2cc(-c3ccc(C(C)(C)C)cc3)on2)cc1OC | active: 25.1 µM | – | –
38 | O=C(Cn1nc2c(cc1=O)CCCC2)N1CCc2c([nH]c3ccccc23)C1 | – | – | inactive
39 | COc1cc2c(cc1NS(C)(=O)=O)C(c1cccc3c1OCO3)CC(=O)N2 (stereo not given) | inconclusive: 89.1 µM [inhibitor, single point] | – | –
40 | O=C(CC[C@H]1NC(=O)c2ccccc2NC1=O)Nc1nc2c(s1)CCC2 | inconclusive: 35.5 µM [inhibitor, single point] | – | –
41 | COc1ccc(-c2cnc3n[nH]c(-c4ccccc4)c3n2)cc1 | active: 79.4 µM | – | –
42 | COc1cccc(OCc2cc(C(=O)N(C)CC(O)CO)n[nH]2)c1 (stereo not given) | – | inactive: -5.91% | –
43 | CN(Cc1ccccc1)C(=O)C1CC(=O)N(c2n[nH]c3cc(Br)ccc23)C1 (stereo not given) | inconclusive: 50.1 µM [inhibitor, partial curve, poor fit] | – | –
44 | CNC(=O)c1cc(C2CC2)nc2onc(C3CCN(C(=O)NC(C)C)C3)c12 (stereo not given) | – | inactive: -23.1% | –
45 | O=C1[C@H]2CN(Cc3cccc(F)c3F)C[C@H]2C(=O)N1Cc1ccc2c(c1)OCO2 | inconclusive: 44.7 µM [inhibitor, partial curve, poor fit] | – | –
46 | CNC(=O)c1cc[nH]c1C1CCCN(C(=O)CCc2nc3ccccc3[nH]2)C1 (stereo not given) | – | inactive: -4.3% | –
47 | CCOc1ccc(-c2cc3c(=O)n(CCNC(=O)c4ccc(C)c(C)c4)ccn3n2)cc1 | – | inactive: -9.76% | –
48 | O=C(NCCc1ccccc1)Nc1cccc(-c2ccc(N3CCCCC3)nn2)c1 | – | inactive: -26.8% | –
49 | COc1ccccc1Nc1ncc2c(n1)CN(C(=O)COc1ccccc1)CCN2 | inconclusive: 63.1 µM [inhibitor, partial curve, poor fit] | – | –
50 | Cc1ccc(F)c(C(=O)NC(C)c2cnn(-c3ccccc3)c2C)c1Cl (stereo not given) | inconclusive: 79.4 µM [inhibitor, single point] | – | –

Row | SMILES | Potency | activity change, negative = cytotoxicity | outcome
51 | COCCNC(=O)CN1C(=O)NC2(CCC(C(C)(C)C)CC2)C1=O (stereo not given) | inconclusive: 70.8 µM [inhibitor, single point] | – | –
52 | CCc1ccc([S+](=O)([O-])c2nnn3c2nc(NCCCOC)c2ccccc23)cc1 | inconclusive: 50.1 µM [inhibitor, partial curve, poor fit] | – | –
53 | CNC(=O)c1cc(C2CC2)nc2onc(C3CCN([S+](=O)([O-])c4ccccc4)C3)c12 (stereo not given) | – | inactive: -19.3% | –
54 | COc1ccc(NC(=O)N2Cc3[nH]cnc3C[C@H]2c2nc(-c3ccncc3)no2)cc1 | inconclusive: 70.8 µM [inhibitor, partial curve, poor fit] | – | –
55 | COc1ccc(CC(=O)NCCNC(=O)c2ccc(-c3cncnc3)cc2)cc1 | – | inactive: -22.6% | –
56 | COc1ccc(C(=O)N2CCC3(CC2)N=C(c2cccc(Br)c2)NO3)cc1F | inconclusive: 50.1 µM [inhibitor, partial curve, poor fit] | – | –
57 | O=C(O)CCn1ncc2cc(OCc3ccc(-c4ccncc4)cc3)ccc21 | inconclusive: 44.7 µM [inhibitor, full curve] | – | –
58 | COc1ccc(CN2CCOC[C@H]2c2ncc(-c3ccc(C)cc3)[nH]2)cc1 | active: 100 µM | – | –
59 | COc1ccc(C(=O)N2CCC3(CC2)OC(=O)N(Cc2csc(C)n2)C3(C)c2ccccc2)cn1 (stereo not given) | inconclusive: 31.6 µM [inhibitor, partial curve, poor fit] | – | –
60 | O=C(Nc1cccn2nc(C3CCC3)nc12)c1ccccn1 | active: 8.91 µM | – | –
61 | O=C(NC1CN(c2ccnc3ccnn23)C1)c1cncc(Br)c1 | – | inactive: -26.1% | –
62 | CCOc1ccc2c(n1)CCN(C(=O)COc1ccccc1)C2 | – | inactive: -15.4% | –
63 | CCC1Oc2ccc(NC(=O)COC)cc2CN(Cc2ccc(Cl)cc2)C1=O (stereo not given) | inconclusive: 50.1 µM [inhibitor, partial curve, poor fit] | – | –
64 | Cc1ccc(C(=O)NC2CCCN(c3ccc4nnc(C)n4n3)C2)cc1 (stereo not given) | inconclusive: 50.1 µM [inhibitor, partial curve, poor fit] | – | –
65 | CCOc1ccc(-c2cc3c(=O)n(CCNC(=O)c4ccc(F)c(F)c4)ccn3n2)cc1 | – | – | inactive
66 | COc1cc(C(=O)N2CCC(Cc3nc(C(C)C)no3)CC2)cc(OC)c1OC | inconclusive: 44.7 µM [inhibitor, partial curve, poor fit] | – | –
67 | COc1ccc(CCNC(=O)c2ccc3nnc(Cc4ccc(Cl)cc4)n3c2)cc1 | inconclusive: 50.1 µM [inhibitor, partial curve, poor fit] | – | –
68 | O=c1[nH]c(C2CCCN(Cc3ccc(-c4ccccc4)cc3)C2)nc2ccc(F)cc12 (stereo not given) | inconclusive: 44.7 µM [inhibitor, partial curve, poor fit] and inconclusive: 50.1 µM [inhibitor, partial curve, poor fit] | – | –
69 | Cc1noc(-c2ccc(OC3CN(C(=O)CCCc4ccccc4)C3)cc2)n1 | inconclusive: 50.1 µM [inhibitor, single point] | – | –
70 | COc1ccc2[nH]c(C(=O)NC3CCc4nn(C)c(=O)n4CC3)cc2c1 (stereo not given) | – | inactive: -2.02% | –
71 | C=CCNC(=O)[C@@H]1[C@H](c2cc(OC)c(OC)c(OC)c2)c2cc3c(cc2[C@H](O)[C@H]1CO)OCO3 | inconclusive: 44.7 µM [inhibitor, partial curve, poor fit] | – | –
72 | Cc1ccccc1C(=O)N1CCC(n2cc(-c3nc(-c4ccccc4)no3)nn2)CC1 | – | inactive: -22.2% | –
73 | Cc1ccc(-c2ccnc(N3CCC(N(C)Cc4ccon4)CC3)n2)c(C)n1 | inconclusive: 50.1 µM [inhibitor, partial curve, poor fit] | – | –
74 | CCCN1CCC2(CCN(C(=O)c3ccc(OC)cc3)CC2)Oc2ccccc21 | inconclusive: 50.1 µM [inhibitor, partial curve, poor fit] | – | –
75 | CCn1ccc(C(=O)N2CCC(c3nnc(Cn4cncn4)n3C)CC2)n1 | – | inactive: -6.2% | –

Source: PubChem BioAssay AID1345082 (National Center for Advancing Translational Sciences (NCATS), 2018)
